Laboratory results published in the supplement of paper PMC3334620.
Whole data set: some 33,000 sequences, median “E-score (-0.5 to 0.5)” near -0.053, cut for the highest 2% near 0.37. The list shows a part of the results.

Biological target: Hap1 (UniProt P0CE41)
Assay: PBM E-score (8-mer binding enrichment) (E-score (-0.5 to 0.5)); higher = stronger / more preferred TF binding; most listed sequences are background and not binding sites
Conditions: protein concentration: 200 nM; construct: GST-DNA-binding domain
Method: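 Universal 'all 10-mer' protein binding microarrays (Agilent AMADID 015681) probed with GST-tagged S. cerevisiae TFs (full-length or DBD) made by in vitro transcription/translation (PURExpress), about 100-200 nM. Bound TF was detected with fluorescent anti-GST. Each ungapped 8-mer (which stands for itself and its reverse complement) is scored by the PBM enrichment score (E-score), a modified Wilcoxon-Mann-Whitney statistic from -0.5 to +0.5, computed with the Universal PBM Analysis Suite. Scale: above 0.35 generally sequence-specific binding.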

UniProt P0CE41, sequence (P0CE41 whole entry): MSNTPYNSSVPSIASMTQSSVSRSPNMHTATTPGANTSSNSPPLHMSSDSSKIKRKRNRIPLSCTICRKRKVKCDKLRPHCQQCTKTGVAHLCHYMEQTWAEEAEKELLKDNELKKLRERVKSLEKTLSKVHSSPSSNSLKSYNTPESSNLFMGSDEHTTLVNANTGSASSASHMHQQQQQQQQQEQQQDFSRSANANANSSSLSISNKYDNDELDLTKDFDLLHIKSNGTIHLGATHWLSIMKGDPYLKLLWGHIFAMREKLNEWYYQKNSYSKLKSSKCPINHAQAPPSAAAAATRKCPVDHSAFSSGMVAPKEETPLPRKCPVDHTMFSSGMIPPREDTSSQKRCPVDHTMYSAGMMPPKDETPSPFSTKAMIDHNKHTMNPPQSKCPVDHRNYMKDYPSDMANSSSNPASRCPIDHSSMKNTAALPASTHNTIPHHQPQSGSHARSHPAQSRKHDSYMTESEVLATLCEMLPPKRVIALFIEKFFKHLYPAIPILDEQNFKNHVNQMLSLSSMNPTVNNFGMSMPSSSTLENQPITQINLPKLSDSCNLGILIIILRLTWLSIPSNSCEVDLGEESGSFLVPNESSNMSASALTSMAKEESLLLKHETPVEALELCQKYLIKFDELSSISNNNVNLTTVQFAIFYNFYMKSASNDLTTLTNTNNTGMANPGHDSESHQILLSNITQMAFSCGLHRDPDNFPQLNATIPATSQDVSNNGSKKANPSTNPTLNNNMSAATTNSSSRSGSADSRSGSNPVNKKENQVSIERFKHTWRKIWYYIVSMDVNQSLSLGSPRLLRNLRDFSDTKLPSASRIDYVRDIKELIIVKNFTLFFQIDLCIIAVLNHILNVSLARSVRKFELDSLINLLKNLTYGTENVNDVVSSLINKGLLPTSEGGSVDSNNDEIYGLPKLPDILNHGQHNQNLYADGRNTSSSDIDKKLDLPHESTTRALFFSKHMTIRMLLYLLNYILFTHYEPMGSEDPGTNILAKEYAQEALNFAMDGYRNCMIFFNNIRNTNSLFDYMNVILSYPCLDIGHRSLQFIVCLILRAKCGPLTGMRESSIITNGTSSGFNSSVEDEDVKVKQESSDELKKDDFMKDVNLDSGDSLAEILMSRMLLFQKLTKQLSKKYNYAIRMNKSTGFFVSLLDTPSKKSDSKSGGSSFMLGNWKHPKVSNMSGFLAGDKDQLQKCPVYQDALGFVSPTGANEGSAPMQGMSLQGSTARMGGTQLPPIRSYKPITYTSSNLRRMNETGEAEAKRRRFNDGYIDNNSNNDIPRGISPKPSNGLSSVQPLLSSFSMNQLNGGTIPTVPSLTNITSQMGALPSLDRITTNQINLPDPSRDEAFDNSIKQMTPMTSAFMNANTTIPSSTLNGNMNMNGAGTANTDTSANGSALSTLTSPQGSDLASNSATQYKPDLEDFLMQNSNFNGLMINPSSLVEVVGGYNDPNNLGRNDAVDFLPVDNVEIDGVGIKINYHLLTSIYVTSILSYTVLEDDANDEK

Row | Sequence | PBM E-score
1 | ACAACCTG | -0.247
2 | ATAGATAT | -0.013
3 | AGTGTCGC | -0.0563
4 | AGTGGGAG | -0.0995
5 | ATTTTCCC | 0.123
6 | CGACTAAG | -0.00674
7 | GGCACACC | -0.0137
8 | GTATTTAA | 1e-05
9 | TCTACGAA | -0.279
10 | TCTGCAGA | -0.171
11 | AGGGCCGA | 0.343
12 | CGGTAGCA | 0.109
13 | ACGCGGCA | -0.0566
14 | CAGGATGC | -0.0599
15 | AGCTGTGC | -0.224
16 | AAGCATGC | -0.365
17 | GAAAAGAA | -0.0671
18 | ACTGAACA | -0.147
19 | GAGGATAA | -0.0202
20 | TACACATA | -0.167
21 | AGGTAGCG | -0.0252
22 | AGGGCTGA | -0.214
23 | AGCAAGAG | -0.35
24 | GCATATGC | -0.163
25 | ACGCCGGC | 0.405

Row | Sequence | PBM E-score
26 | AAGTAAAT | 0.0671
27 | CTGCTTTC | -0.0859
28 | ATGGACAC | -0.142
29 | AGAATGTA | -0.114
30 | CCCGAACA | 0.24
31 | GGTTGCAA | -0.0933
32 | CGAAATTC | 0.214
33 | AAGTACCT | -0.267
34 | ACGATCAC | -0.09
35 | ATGCTGGC | -0.24
36 | AATAGCCC | 0.0355
37 | ATTGGTTA | -0.094
38 | CGGAAATA | 0.487
39 | AACTGCTT | -0.134
40 | ACGCCGCG | 0.202
41 | TACGCGGA | 0.241
42 | CCCTAGAA | -0.196
43 | CAGAACGG | 0.0275
44 | ACACGTAT | -0.0907
45 | CGTCCCGA | 0.178
46 | CTACCGAC | 0.107
47 | GCCCAGCC | -0.109
48 | AAAACGGT | -0.0685
49 | ATTTTGAC | -0.0308
50 | ACTGATCC | -0.112

Row | Sequence | PBM E-score
51 | AACCACCC | 0.0463
52 | GACTATAA | 0.0711
53 | CTGAAACC | 0.0448
54 | GCAAAACC | 0.12
55 | AAACAAAT | -0.00696
56 | CAATTACG | -0.106
57 | AATCACAG | -0.287
58 | AAGGGGAG | -0.0496
59 | CGGGTAGA | 0.101
60 | CATCACCA | -0.216
61 | ATTTGCGA | -0.13
62 | CCTCCACG | -0.214
63 | CTGCAGTA | -0.234
64 | TCTAAAAA | -0.129
65 | ACCTTTTC | -0.304
66 | GTTTGACA | -0.16
67 | CCCGCCGC | 0.195
68 | TGAAAGAA | -0.223
69 | AGATCCGG | 0.384
70 | CCATGTTC | 0.0515
71 | AAAAGAAT | 0.0535
72 | GACGCGAA | 0.0133
73 | ACGCACGT | 0.0387
74 | ACGATAGA | -0.099
75 | ACATAACG | 0.168

Row | Sequence | PBM E-score
76 | CCCCGTGC | 0.269
77 | CCTTTATA | -0.133
78 | TACGACAA | -0.135
79 | CGCGTACC | -0.106
80 | ACCACTCC | 0.215
81 | AGAAGATG | -0.166
82 | ACAGGTAT | -0.138
83 | AGCCTTTA | -0.0851
84 | GTGCGAAC | 0.0112
85 | ATCGCGGA | 0.192
86 | CTACAGTC | -0.163
87 | CCGGCGCG | 0.292
88 | TATGTAAA | -0.0349
89 | ATCATCAG | -0.101
90 | AGTATCAA | -0.0862
91 | CCGCTTCG | 0.154
92 | AACAAGCA | -0.0379
93 | CGGTTGGA | 0.078
94 | ATTGCAGG | -0.081
95 | AGATGGTG | -0.25
96 | ATTGAAAT | 0.014
97 | TTTACAAA | -0.206
98 | GGTGGGCA | -0.252
99 | CCACTACG | -0.0463
100 | AAACGTCA | -0.183

Row | Sequence | PBM E-score
101 | ATTCGGTC | 0.249
102 | GAGACAGA | -0.103
103 | CAACGCGA | -0.00276
104 | ACGGACGC | 0.235
105 | ACCGCGCA | 0.115
106 | GTTGGCCA | -0.0486
107 | GAACGAGA | 0.00175
108 | GATATTTA | 0.2
109 | CGTCAACC | -0.0449
110 | TAGTTGCA | 0.0573
111 | CAGGGAGG | -0.254
112 | CCACGACA | 0.02
113 | ACGCTGGA | -0.0302
114 | CTGTTATC | 0.0682
115 | ACCTCATG | -0.392
116 | GCCGCAGC | 0.0353
117 | GGAGAATA | 0.164
118 | CAGAAGCG | 0.0711
119 | CGTGCGGC | 0.119
120 | GTTTTAAA | -0.0504
121 | GCGGGTGA | 0.188
122 | GTAATTAC | 0.149
123 | GTGTCCAA | -0.18
124 | ACCGTAGC | 0.0783
125 | GCACTAAC | -0.0203

Row | Sequence | PBM E-score
126 | GAAAGGGA | -0.0702
127 | AGCGGCTG | -0.0298
128 | AATTTTGT | 0.0644
129 | AGCACGAC | -0.133
130 | AATTCAGC | -0.0646
131 | ATCCTGGC | -0.0945
132 | CACAGTCC | 0.01
133 | CTGTGCTC | -0.0438
134 | GAACTCAA | -0.0607
135 | CCCCGCCA | 0.16
136 | AGTATGCG | -0.051
137 | CAGTTATG | -0.153
138 | AGGCGTCG | 0.0787
139 | AACGTGCT | -0.233
140 | AAATAATA | 0.0534
141 | GCACCCGA | 0.206
142 | AGACTTAT | -0.244
143 | ACCAACGG | 0.191
144 | AGCGGTTG | 0.0117
145 | CGGCAGAC | 0.14
146 | AGCAGGGG | -0.191
147 | ATGGTGCC | -0.0292
148 | GTGACAAA | -0.129
149 | GGACCCGA | 0.323
150 | TAAATACA | -0.0923

Row | Sequence | PBM E-score
151 | TCGTGAAA | -0.0943
152 | AACTCTCG | -0.0162
153 | GGACTTTA | 0.307
154 | TGTGCTAA | 0.176
155 | AACCTTAG | -0.087
156 | TACTTACA | -0.231
157 | TAATGAAA | -0.277
158 | CAGGCGAG | -0.262
159 | AGGACATC | 0.0821
160 | ATGGTGGG | -0.266
161 | CGCGCAGA | 0.148
162 | GTTCAAGA | -0.165
163 | GCCTACCC | -0.143
164 | ATCGGAAA | 0.426
165 | GCCCTACC | -0.0795
166 | CCGCCGTC | 0.151
167 | ATGGAGCA | -0.0564
168 | AACTCCTC | 0.00689
169 | GCGGCATA | 0.1
170 | CGACTTGA | -0.0543
171 | TGACAGCA | -0.223
172 | ACGACGTG | -0.305
173 | CACACTAG | -0.116
174 | GGCTACAA | -0.141
175 | ACGAATGA | -0.0426

Row | Sequence | PBM E-score
176 | AATCGGAC | 0.345
177 | CCACTGTA | -0.126
178 | ACTGAGCG | -0.284
179 | GGCGTGAA | -0.0737
180 | CAGCGGCA | -0.18
181 | GCGTATCA | -0.212
182 | AAGTCCAC | -0.127
183 | ACCAGTGA | -0.18
184 | GAATTGAA | 0.0222
185 | CTAGCCTC | -0.169
186 | ACAGGCTG | -0.256
187 | ACGGGAAA | 0.174
188 | GACAAGGC | -0.0204
189 | AATAACTG | -0.026
190 | GCTCGAGC | 0.0114
191 | CTATTTCC | 0.397
192 | CAGACTGA | -0.154
193 | CACACCCC | -0.0788
194 | ACATACGT | -0.0308
195 | ATAGGTCA | -0.165
196 | AGGGGGTG | -0.127
197 | CGCCTGAA | 0.0154
198 | GAATTTAC | 0.0854
199 | ACAATGAC | -0.202
200 | ACCCAAAA | -0.191

Row | Sequence | PBM E-score
201 | CAAGGCAA | -0.144
202 | GGTACGTA | -0.0499
203 | TATATACA | -0.0688
204 | ACCCGGCG | 0.283
205 | AGCAGACT | -0.29
206 | CCATATCC | 0.181
207 | AGGGCGAT | -0.196
208 | GCCTTCGC | 0.103
209 | CGTGCGAA | 0.015
210 | ACCGCAGG | 0.0978
211 | AACTTCTT | -0.111
212 | CATGTGAC | -0.349
213 | AACATAGA | -0.083
214 | ACGCGAAT | -0.0518
215 | GGACTAGA | 0.0886
216 | ACATGTAT | -0.0134
217 | CGCCCTCA | -0.149
218 | CGCAAGCA | -0.0513
219 | AGATGACC | 0.0404
